According to the RNAGym collection of RNA variant scans (doi:10.7554/elife.90254):
The source gives no read counts; variants with many changes may rest on few reads.

B1: LINE1-full (parent)
chain: UACGUAGGUGGUUUUCCCCUGAUAGUGCUAAGGGGGCCUGGAAGUUUGGACUGGGCAGAGCUCAACACAGCGUGGCAAAGUGGCUGUGGCUAGACUGCCUCUCUGGAUUCCUCGUCACUCAGCAGGGCAUCUCUGAGAGAAAUGCC

Variants of: B1
Assay: self-cleavage, relative activity (ratio to wild type); higher = more cleavage; in vitro, sequencing; the parent is a self-cleaving ribozyme

Row | Variant | self-cleavage
1 | UACGUAGGUGGUUUUCCCCUGAUAGUGCUAAGGGGGCCUGGAAGUUUGGACUGGGCAGAGCUCAACACAGCAUAGCAAAGUGGCUGUGGCUAGACUGCCUCUCUGGAUUCCUCGCCACUCAGCAGGGCAUCUCUGAGAGGAACGCC [G72A G74A U115C A140G U143C] | 1.11
2 | UACGUAGGUGGUUUUCCCCUGAUAGUGCUAAGGGGGCCUGGAAGUUUGGACUGGGCAGAGCUCAACACAGCUUGGCAGAGUGGCUGCGGCUAGACUGCCUCUCUGGAUUCCUCGUCACUCAGCAGGGCAUCUCUGAGAGAAAUGCC [G72U A78G U87C] | 0.31
3 | UACGUAGGUGGUUUUCCCCUGAUAGUGCUAAGGGGGCCUGGAAGUUUGGACUGGGCAGAGCUCAACACAGCGAGGCAAAGUGGCUGUGGCUAGACAGCCUCUCUGGGUUCCUCGUCGCUCAGCAGGGCAUCUCCGAGAGAAAUGCC [U73A U96A A107G A117G U134C] | 0
4 | UACGUAGGUGGUUUUCCCCUGAUAGUGCUAAGGGGGCCUGGAAGUUUGGACUGGGCAGAGCUCAACACAGCGAGGCAAAGUGGCUGUGGCUGGACUGCCACUCUGGAUUCCUCGUCACUCAGCAGGGCAUCUCUGAGGGAAAUGCC [U73A A92G U100A A138G] | 0.1
5 | UACGUAGGUGGUUUUCCCCUGAUAGUGCUAAGGGGGCCUGGAAGUUUGGACUGGGCAGAGCUCAACACAGCAUGGCAAAGUGGCUGUGGCCUGACUGCCUCUCUGGUUUCCUCGUCACUCAGCAGGGCAUCUCUGAGAGAAAUGCC [G72A U91C A92U A107U] | 0.33
6 | UACGUAGGUGGUUUUCCCCUGAUAGUGCUAAGGGGGCCUGGAAGUUUGGACUGGGCAGAGCUCAACACAGCGAGGCAAAGUGGCUGUGGCUAGACUGCCUCUCUGAAUUCCUCGCCACUCGGCAGGGCAUCUCUGAGAGAAAUGCC [U73A G106A U115C A121G] | 1.84
7 | UACGUAGGUGGUUUUCCCCUGAUAGUGCUAAGGGGGCCUGGAAGUUUGGACUGGGCAGAGCUCAACACAGCGAGGCAAAGUGGCUGAGGCUAGACUGCCUCUCUGGAAUCCUCGUCACUCAGCAGGGCGUCUCUGAGAGAAAUGCC [U73A U87A U108A A129G] | 0.07
8 | UACGUAGGUGGUUUUCCCCUGAUAGUGCUAAGGGGGCCUGGAAGUUUGGACUGGGCAGAGCUCAACACAGCAUGGCAAAGUAGCUGUGGCUAGACUGCCUCUCUGGAUUCCUCGCCACUCAGCAGGGCAUCUCUGAGAGAAAUGCC [G72A G82A U115C] | 1.83
9 | UACGUAGGUGGUUUUCCCCUGAUAGUGCUAAGGGGGCCUGGAAGUUUGGACUGGGCAGAGCUCAACACAGCGAGGCAAAGUGGCUGCGGCUAGACUGCCUCCCUGGAUUCCUCGUCACUCAGCAGGGCAUCCCUGAGAGAGACGCC [U73A U87C U102C U132C A141G U143C] | 0
10 | UACGUAGGUGGUUUUCCCCUGAUAGUGCUAAGGGGGCCUGGAAGUUUGGACUGGGCAGAGCUCAACACAGCGAGGCAGUGUGGCUGUGGCUAGACUGCCUCUCUGGAUUCCUCGUCACUCAGCAGGGCAUCUCUGAGAGAAAUGCC [U73A A78G A79U] | 0.24
11 | UACGUAGGUGGUUUUCCCCUGAUAGUGCUAAGGGGGCCUGGAAGUUUGGACUGGGCAGAGCUCAACACAGCAAGGCAAAGUGGCUGUGGCUAGACUGCCUCUCUGGAUUCCUCGUCACUCAGCAGGGCAUCUCUGAGAGGAAUGCC [G72A U73A A140G] | 2.65
12 | UACGUAGGUGGUUUUCCCCUGAUAGUGCUAAGGGGGCCUGGAAGUUUGGACUGGGCAGAGCUCAACACAGCGAGGCAAAGUGGCUGAGGCUAGACUGCCUCUCUGGAUUCCUCGUCUCUCAGCAGGGCAUCUCUGAGAGAAAUGCC [U73A U87A A117U] | 0.05
13 | UACGUAGGUGGUUUUCCCCUGAUAGUGCUAAGGGGGCCUGGAAGUUUGGACUGGGCAGAGCUCAACACAGCGAGGCAAAGUGGCCGUGGCUAGACUGCCUCUCUGGAUUCCUCGUCACUCAGCAGGGCGUCUCUGAGAGAAGUGCC [U73A U85C A129G A142G] | 0.15
14 | UACGUAGGUGGUUUUCCCCUGAUAGUGCUAAGGGGGCCUGGAAGUUUGGACUGGGCAGAGCUCAACACAGCAUGGCAAAGUGGCUGUGGCUAGACUGCCUCUCUGGAAUCCUCGUCACUCAGCAGGGCAUUUCUGAGAGAAGUGCC [G72A U108A C131U A142G] | 1.99
15 | UACGUAGGUGGUUUUCCCCUGAUAGUGCUAAGGGGGCCUGGAAGUUUGGACUGGGCAGAGCUCAACACAGCGAGGCAAAGUGGCCGUGGCUAGACUGCCUCUCUGGAUUCCUCGUCACUCGGCAGGGCAUCUCUGAGAGAAAUGCC [U73A U85C A121G] | 0.06
16 | UACGUAGGUGGUUUUCCCCUGAUAGUGCUAAGGGGGCCUGGAAGUUUGGACUGGGCAGAGCUCAACACAGCGAGGCAAAGUGGCUGUGGCUAGACUGCCUCUCUGGAUUCUUCGUCACUCAGCAGGGCAUCUCUGAGAGGUAUGCC [U73A C111U A140G A141U] | 1.16
17 | UACGUAGGUGGUUUUCCCCUGAUAGUGCUAAGGGGGCCUGGAAGUUUGGACUGGGCAGAGCUCAACACAGCGAGGCAAAGUGGCUGUGGCCAGACUGCCUCUCUGGGUUCCUCGUCACCCAGCAGGGCAUCUCUGAGAGAAAUGCC [U73A U91C A107G U119C] | 0
18 | UACGUAGGUGGUUUUCCCCUGAUAGUGCUAAGGGGGCCUGGAAGUUUGGACUGGGCAGAGCUCAACACAGCGAGGCAAAGUGGCUGCGGCUAGACAGCCUCUCUGGAUUCCUCGUCACUCAGCAGGGCAUCUCUGAGAGAAAUGCC [U73A U87C U96A] | 0.09
19 | UACGUAGGUGGUUUUCCCCUGAUAGUGCUAAGGGGGCCUGGAAGUUUGGACUGGGCAGAGCUCAACACAGCGAGGCAAAGUGGCUGAGGCUAGACUACCUCUCUGGAUUCCUCGUCACUCAGCAGGGCAUCUCUGAGAGAAAUGCC [U73A U87A G97A] | 0.04
20 | UACGUAGGUGGUUUUCCCCUGAUAGUGCUAAGGGGGCCUGGAAGUUUGGACUGGGCAGAGCUCAACACAGCGAGGCAAAGUGGCUGUGGCUAGACUGCCUCUCUGGGUUCCUCGUCACUCAGCAGGGCAUCUCUGAGAGAAACGCC [U73A A107G U143C] | 1.75

Row | Variant | self-cleavage
21 | UACGUAGGUGGUUUUCCCCUGAUAGUGCUAAGGGGGCCUGGAAGUUUGGACUGGGCAGAGCUCAACACAGCAUGGCAAAGUGGCUGUGGCUAGACUGCCUCUCUGGAUUCCUCGUCACUCAGCAGGGCAUCUCAGAGAGAGAUGCC [G72A U134A A141G] | 1.66
22 | UACGUAGGUGGUUUUCCCCUGAUAGUGCUAAGGGGGCCUGGAAGUUUGGACUGGGCAGAGCUCAACACAGCGAGGCAAAGUGGCUGUGGCUGGACUGCCUCUCUGGAUUCCUCGUUACUCUGCAGGGCAUCUCUGAGAGAAGUGCC [U73A A92G C116U A121U A142G] | 0.08
23 | UACGUAGGUGGUUUUCCCCUGAUAGUGCUAAGGGGGCCUGGAAGUUUGGACUGGGCAGAGCUCAACACAGCGAGCCAAAGUGGCUGUGGCUAGACUGCCUCUCUGGAUUCCUCGUCACUCAGCAGGGCAACUCUGAGAGAAGUGCC [U73A G75C U130A A142G] | 0.73
24 | UACGUAGGUGGUUUUCCCCUGAUAGUGCUAAGGGGGCCUGGAAGUUUGGACUGGGCAGAGCUCAACACAGCGAGGCAGAGUGGCAGUGGCUAGACUGCCUCUCUGGAUUCCUCGUCACUCAGCAGGGCAUUUCUGAGAGAAAUGCC [U73A A78G U85A C131U] | 0.03
25 | UACGUAGGUGGUUUUCCCCUGAUAGUGCUAAGGGGGCCUGGAAGUUUGGACUGGGCAGAGCUCAACACAGCGAGGCAGAGUGGCUGUGGCUAGACUGCCUCUCUGGAUCCCUCGUCACUCAGCAGGGCAUCCCUGAGGGAAAUGCC [U73A A78G U109C U132C A138G] | 0.2
26 | UACGUAGGUGGUUUUCCCCUGAUAGUGCUAAGGGGGCCUGGAAGUUUGGACUGGGCAGAGCUCAACACAGCAUGGCAAAGUGGCUGUGGCUAGACUGCCUCUCUGGAUUCCUCGUCACACAGCAGGGCAUCUCUGAGAGAAACGCC [G72A U119A U143C] | 1.93
27 | UACGUAGGUGGUUUUCCCCUGAUAGUGCUAAGGGGGCCUGGAAGUUUGGACUGGGCAGAGCUCAACACAGCAUGGCAAAGAGGCUGUGGCUAGACUGCCUCUCUGGACUCCUCGUCACUCAGCAGGGCAUCUUUGAGAGAAAUGCC [G72A U81A U108C C133U] | 2.47
28 | UACGUAGGUGGUUUUCCCCUGAUAGUGCUAAGGGGGCCUGGAAGUUUGGACUGGGCAGAGCUCAACACAGCGAGGCAAAGUGGCUGUGGCUAGACUGCCUCUCUGGAUUCCUCGUCACUCAGCUGGGCAUCUCUGAGAGAAGUGCC [U73A A124U A142G] | 1.48
29 | UACGUAGGUGGUUUUCCCCUGAUAGUGCUAAGGGGGCCUGGAAGUUUGGACUGGGCAGAGCUCAACACAGCGAGGCAAAGUGGCCGUAGCUAGACUGCCUCUCUGGAUUCCUCGUCACUCAGCAGGGCAUCUCUGAGAGAAAUGCC [U73A U85C G88A] | 0.04
30 | UACGUAGGUGGUUUUCCCCUGAUAGUGCUAAGGGGGCCUGGAAGUUUGGACUGGGCAGAGCUCAACACAGCAAGGCAAAGUGGCUGUGGCUAGACUGCCUCUCUGGAUUCCUCGUCACUCAGCGGGGCAUCUCUGAGAGAAAUGCC [G72A U73A A124G] | 1.04
31 | UACGUAGGUGGUUUUCCCCUGAUAGUGCUAAGGGGGCCUGGAAGUUUGGACUGGGCAGAGCUCAACACAGCGAGGCAAAGUGGCUGUGGCUAGACUGCCUCUAUGGAUUCCUCGUCACUCAGCAGGGCAUCUCUGAGAGAGAUGCC [U73A C103A A141G] | 1.8
32 | UACGUAGGUGGUUUUCCCCUGAUAGUGCUAAGGGGGCCUGGAAGUUUGGACUGGGCAGAGCUCAACACAGCGAGGCAGAGUGGCUGUGGCUAGACUGCCUCUCUGGAUUCCUCGUCACUCAGCAGGGCAUCUCUGAGUGAGAUGCC [U73A A78G A138U A141G] | 0.45
33 | UACGUAGGUGGUUUUCCCCUGAUAGUGCUAAGGGGGCCUGGAAGUUUGGACUGGGCAGAGCUCAACACAGCGAGGCAAAGUGGCUGUGGCUAGACUGCCUCUCUGGAUUCCUCGUCACUUAGCAGGGCACCUCUGAGAGAAAUGCC [U73A C120U U130C] | 2.16
34 | UACGUAGGUGGUUUUCCCCUGAUAGUGCUAAGGGGGCCUGGAAGUUUGGACUGGGCAGAGCUCAACACAGCGAGGCAAGGUGGCUGUGGCUAGACUGCCUCACUGGAUUCCUCGUCACUCAGCAGGGCAUCUCUGAGAGAAAUGCC [U73A A79G U102A] | 1.08
35 | UACGUAGGUGGUUUUCCCCUGAUAGUGCUAAGGGGGCCUGGAAGUUUGGACUGGGCAGAGCUCAACACAGCGAGGCAAAGUGGCUGUGGCUAGACUGCCUCUCUGGAUUCCUCGUCACUCAGCAGGGCGUCUCUGAGAGUAAUGCC [U73A A129G A140U] | 2.23
36 | UACGUAGGUGGUUUUCCCCUGAUAGUGCUAAGGGGGCCUGGAAGUUUGGACUGGGCAGAGCUCAACACAGCGAGGCAAAGUGGCUGUGGCUAGACUGCCUCUCUGGAUUCCUCGUCACUCAGCGGGGCUUCUCUGAGAGAAAUGCC [U73A A124G A129U] | 1.41
37 | UACGUAGGUGGUUUUCCCCUGAUAGUGCUAAGGGGGCCUGGAAGUUUGGACUGGGCAGAGCUCAACACAGCUUGGCAAAGUGGCUGUUGCUAGACUGCCUCUCUGGACUCCUCGUCACUCAGCAGGGCAUCACUGAGAGAAAAGCC [G72U G88U U108C U132A U143A] | 0.01
38 | UACGUAGGUGGUUUUCCCCUGAUAGUGCUAAGGGGGCCUGGAAGUUUGGACUGGGCAGAGCUCAACACAGCAUGGCAAAGUGGCUGUGGCUAGACUGCCUCUCUGGAUUCCUCGUCACUCAGCAGGGCACCUCCGAGAGAAAUGCC [G72A U130C U134C] | 2.4
39 | UACGUAGGUGGUUUUCCCCUGAUAGUGCUAAGGGGGCCUGGAAGUUUGGACUGGGCAGAGCUCAACACAGCGAGGCAAAGUGGCUGUGGCUAGACUGCCUCUCUGGAUUCCUCGUCACUCAGCAGGGCAUCUCUGGGAGAAACGCC [U73A A136G U143C] | 1.79
